Results taken from article PMC11316025.
Results are given in words; binding and its absence hold for the method and conditions named. Binding seen in cells or lysates may run through a third protein. Some binding calls cover weakened binding; strength is not graded here. Where a sequence is shown, tags or fusion partners need not be part of it.

T1: full-length FLAG-RASSF8 (human) (UniProt Q8NHQ8)
T1 sequence: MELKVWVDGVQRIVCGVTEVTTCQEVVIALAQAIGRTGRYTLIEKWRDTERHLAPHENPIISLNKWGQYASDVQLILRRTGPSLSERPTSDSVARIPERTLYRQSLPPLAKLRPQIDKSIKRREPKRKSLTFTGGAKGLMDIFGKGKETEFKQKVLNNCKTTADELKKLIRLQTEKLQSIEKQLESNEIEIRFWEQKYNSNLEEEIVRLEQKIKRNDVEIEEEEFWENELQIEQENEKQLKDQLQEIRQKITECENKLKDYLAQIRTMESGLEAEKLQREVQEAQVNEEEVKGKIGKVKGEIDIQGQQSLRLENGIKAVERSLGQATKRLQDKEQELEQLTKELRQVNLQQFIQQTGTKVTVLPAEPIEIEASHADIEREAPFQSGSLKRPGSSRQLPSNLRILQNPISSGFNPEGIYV

T2: full-length FLAG-tagged RASSF5 (human) (UniProt Q8WWW0)
T2 sequence: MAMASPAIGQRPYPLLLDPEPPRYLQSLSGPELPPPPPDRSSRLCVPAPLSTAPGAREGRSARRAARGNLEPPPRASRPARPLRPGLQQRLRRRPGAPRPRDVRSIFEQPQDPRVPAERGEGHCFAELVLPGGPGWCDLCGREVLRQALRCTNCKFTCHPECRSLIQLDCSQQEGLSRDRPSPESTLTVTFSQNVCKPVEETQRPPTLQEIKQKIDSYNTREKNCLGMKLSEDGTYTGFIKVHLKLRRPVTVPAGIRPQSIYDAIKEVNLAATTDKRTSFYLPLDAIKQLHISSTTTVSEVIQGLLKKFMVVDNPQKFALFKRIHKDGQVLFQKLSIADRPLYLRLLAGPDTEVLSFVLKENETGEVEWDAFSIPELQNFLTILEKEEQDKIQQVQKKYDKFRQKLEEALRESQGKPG

T3: full-length FLAG-RASSF3 (human) (UniProt Q86WH2)
T3 sequence: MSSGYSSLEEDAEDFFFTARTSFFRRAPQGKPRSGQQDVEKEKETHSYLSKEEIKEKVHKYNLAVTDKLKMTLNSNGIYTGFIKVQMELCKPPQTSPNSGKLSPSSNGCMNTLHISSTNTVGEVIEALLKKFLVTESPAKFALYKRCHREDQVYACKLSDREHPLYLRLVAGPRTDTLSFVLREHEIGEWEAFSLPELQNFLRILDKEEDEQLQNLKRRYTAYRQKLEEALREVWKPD

T4: full-length FLAG-RASSF4 (human) (UniProt Q9H2L5)
T4 sequence: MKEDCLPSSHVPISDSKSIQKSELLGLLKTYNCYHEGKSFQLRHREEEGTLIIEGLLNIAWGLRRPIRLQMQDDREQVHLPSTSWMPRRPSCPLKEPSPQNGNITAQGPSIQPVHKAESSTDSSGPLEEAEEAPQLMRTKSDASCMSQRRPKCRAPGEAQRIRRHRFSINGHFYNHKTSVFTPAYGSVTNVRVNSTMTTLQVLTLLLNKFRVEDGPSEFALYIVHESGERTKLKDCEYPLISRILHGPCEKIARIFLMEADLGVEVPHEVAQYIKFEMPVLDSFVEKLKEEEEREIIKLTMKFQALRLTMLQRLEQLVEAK


Tests used:
Assay in all cases: co-IP; HEK 293T co-transfected with FLAG-tagged RASSF and VENUS-tagged GTPase; lysis in 20 mM Tris-HCl pH 7.5, 150 mM NaCl, 5 mM MgCl2, 10% glycerol, 1% Triton X-100, 1 mM DTT; anti-FLAG on Protein G Sepharose 1 h, three washes; blot with anti-GFP
[1] = target: T1, full-length FLAG-RASSF8 (human)
[2] = target: T2, full-length FLAG-tagged RASSF5 (human)
[3] = target: T3, full-length FLAG-RASSF3 (human)
[4] = target: T4, full-length FLAG-RASSF4 (human)

binding [1]	binding [2]	binding [3]	binding [4]	Binder
binds	–	–	–	VENUS-tagged RHOH (wild-type) (protein, UniProt Q15669 1-191) MLSSIKCVLVGDSAVGKTSLLVRFTSETFPEAYKPTVYENTGVDVFMDGIQISLGLWDTAGNDAFRSIRPLSYQQADVVLMCYSVANHNSFLNLKNKWIGEIRSNLPCTPVLVVATQTDQREMGPHRASCVNAMEGKKLAQDVRAKGYLECSALSNRGVQQVFECAVRTAVNQARRRNRRRLFSINECKIF
binds	–	binds	–	VENUS-tagged, mutationally activated RASL11B (protein, UniProt Q9BPW5 1-248) MRLIQNMCTIAEYPAPGNAAASDCCVGAAGRRLVKIAVVGAVGVGKTALVVRFLTKRFIGDYERNAGNLYTRQVQIEGETLALQVQDTPGIQVHENSLSCSEQLNRCIRWADAVVIVFSITDYKSYELISQLHQHVQQLHLGTRLPVVVVANKADLLHIKQVDPQLGLQLASMLGCSFYEVSVSENYNDVYSAFHVLCKEVSHKQQPSSTPEKRRTSLIPRPKSPNMQDLKRRFKQALSAKVRTVTSV
binds	–	–	–	VENUS-tagged RHOBTB2 (wild-type) (protein, UniProt Q9BYZ6 1-727) MDSDMDYERPNVETIKCVVVGDNAVGKTRLICARACNATLTQYQLLATHVPTVWAIDQYRVCQEVLERSRDVVDDVSVSLRLWDTFGDHHKDRRFAYGRSDVVVLCFSIANPNSLHHVKTMWYPEIKHFCPRAPVILVGCQLDLRYADLEAVNRARRPLARPIKPNEILPPEKGREVAKELGIPYYETSVVAQFGIKDVFDNAIRAALISRRHLQFWKSHLRNVQRPLLQAPFLPPKPPPPIIVVPDPPSSSEECPAHLLEDPLCADVILVLQERVRIFAHKIYLSTSSSKFYDLFLMDLSEGELGGPSEPGGTHPEDHQGHSDQHHHHHHHHHGRDFLLRAASFDVCESVDEAGGSGPAGLRASTSDGILRGNGTGYLPGRGRVLSSWSRAFVSIQEEMAEDPLTYKSRLMVVVKMDSSIQPGPFRAVLKYLYTGELDENERDLMHIAHIAELLEVFDLRMMVANILNNEAFMNQEITKAFHVRRTNRVKECLAKGTFSDVTFILDDGTISAHKPLLISSCDWMAAMFGGPFVESSTREVVFPYTSKSCMRAVLEYLYTGMFTSSPDLDDMKLIILANRLCLPHLVALTEQYTVTGLMEATQMMVDIDGDVLVFLELAQFHCAYQLADWCLHHICTNYNNVCRKFPRDMKAMSPENQEYFEKHRWPPVWYLKEEDHYQRARKEREKEDYLHLKRQPKRRWLFWNSPSSPSSSAASSSSPSSSSAVV

Second part, the binder before the results:

Binder	binding [1]	binding [2]	binding [3]	binding [4]
VENUS-RRAS2-G23V (protein, UniProt P62070 1-204) MAAAGWRDGSGQEKYRLVVVGGVGVGKSALTIQFIQSYFVTDYDPTIEDSYTKQCVIDDRAARLDILDTAGQEEFGAMREQYMRTGEGFLLVFSVTDRGSFEEIYKFQRQILRVKDRDEFPMILIGNKADLDHQRQVTQEEGQQLARQLKVTYMEASAKIRMNVDQAFHELVRVIRKFQEQECPPSPEPTRKEKDKKGCHCVIF	–	binds	–	–
VENUS-tagged RHOBTB1 (wild-type) (protein, UniProt O94844 1-696) MDADMDYERPNVETIKCVVVGDNAVGKTRLICARACNTTLTQYQLLATHVPTVWAIDQYRVCQEVLERSRDVVDEVSVSLRLWDTFGDHHKDRRFAYGRSDVVVLCFSIANPNSLNHVKSMWYPEIKHFCPRTPVILVGCQLDLRYADLEAVNRARRPLARPIKRGDILPPEKGREVAKELGLPYYETSVFDQFGIKDVFDNAIRAALISRRHLQFWKSHLKKVQKPLLQAPFLPPKAPPPVIKIPECPSMGTNEAACLLDNPLCADVLFILQDQEHIFAHRIYLATSSSKFYDLFLMECEESPNGSEGACEKEKQSRDFQGRILSVDPEEEREEGPPRIPQADQWKSSNKSLVEALGLEAEGAVPETQTLTGWSKGFIGMHREMQVNPISKRMGPMTVVRMDASVQPGPFRTLLQFLYTGQLDEKEKDLVGLAQIAEVLEMFDLRMMVENIMNKEAFMNQEITKAFHVRKANRIKECLSKGTFSDVTFKLDDGAISAHKPLLICSCEWMAAMFGGSFVESANSEVYLPNINKISMQAVLDYLYTKQLSPNLDLDPLELIALANRFCLPHLVALAEQHAVQELTKAATSGVGIDGEVLSYLELAQFHNAHQLAAWCLHHICTNYNSVCSKFRKEIKSKSADNQEYFERHRWPPVWYLKEEDHYQRVKREREKEDIALNKHRSRRKWCFWNSSPAVA	binds	–	–	–
VENUS-RAP2B-G12V (protein, UniProt P61225 1-183) MREYKVVVLGSVGVGKSALTVQFVTGSFIEKYDPTIEDFYRKEIEVDSSPSVLEILDTAGTEQFASMRDLYIKNGQGFILVYSLVNQQSFQDIKPMRDQIIRVKRYERVPMILVGNKVDLEGEREVSYGEGKALAEEWSCPFMETSAKNKASVDELFAEIVRQMNYAAQPNGDEGCCSACVIL	–	binds	–	–
VENUS-RAP2C-G12V (protein, UniProt Q9Y3L5 1-183) MREYKVVVLGSVGVGKSALTVQFVTGTFIEKYDPTIEDFYRKEIEVDSSPSVLEILDTAGTEQFASMRDLYIKNGQGFILVYSLVNQQSFQDIKPMRDQIVRVKRYEKVPLILVGNKVDLEPEREVMSSEGRALAQEWGCPFMETSAKSKSMVDELFAEIVRQMNYSSLPEKQDQCCTTCVVQ	–	binds	–	–
VENUS-RIT2-G29V (protein, UniProt Q99578 1-217) MEVENEASCSPGSASGGSREYKVVMLGAVGVGKSAMTMQFISHQFPDYHDPTIEDAYKTQVRIDNEPAYLDILDTAGQAEFTAMREQYMRGGEGFIICYSVTDRQSFQEAAKFKELIFQVRHTYEIPLVLVGNKIDLEQFRQVSTEEGLSLAQEYNCGFFETSAALRFCIDDAFHGLVREIRKKESMPSLMEKKLKRKDSLWKKLKGSLKKKRENMT	–	binds	–	–
VENUS-tagged MIRO1-cGTPase (410-585) (domain or fragment, UniProt Q8IXI2 410-585) QKKQTQRNVFRCNVIGVKNCGKSGVLQALLGRNLMRQKKIREDHKSYYAINTVYVYGQEKYLLLHDISESEFLTEAEIICDVVCLVYDVSNPKSFEYCARIFKQHFMDSRIPCLIVAAKSDLHEVKQEYSISPTDFCRKHKMPPPQAFTCNTADAPSKDIFVKLTTMAMYPHVTQA	no binding	no binding	no binding	no binding
VENUS-tagged RASD1-A178V (protein, UniProt Q9Y272 1-281) MKLAAMIKKMCPSDSELSIPAKNCYRMVILGSSKVGKTAIVSRFLTGRFEDAYTPTIEDFHRKFYSIRGEVYQLDILDTSGNHPFPAMRRLSILTGDVFILVFSLDNRDSFEEVQRLRQQILDTKSCLKNKTKENVDVPLVICGNKGDRDFYREVDQREIEQLVGDDPQRCAYFEISVKKNSSLDQMFRALFAMAKLPSEMSPDLHRKVSVQYCDVLHKKALRNKKLLRAGSGGGGGDPGDAFGIVAPFARRPSVHSDLMYIREKASAGSQAKDKERCVIS	binds	–	binds	–
